Results: patent publication US10363282B2, “Analogs of C5a and methods of using same” (priority 2010, dated 2019)
Where two headings read alike, the source gives them in different places. Where no end group is shown, it is not given here. [ ]: non-standard residue; d: D form. NMeL = CN[C@@H](CC(C)C)C(=O)O

Experiments:
CA-MRSA strain USA300 [1] = conditions: for lesion size, neutropenic mice vs respective IgG-treated paired control animals: RB6-8C5 Mab, P<0.001
Protocol: Bacterial strains and culture conditions. Methicillin-sensitive Staphylococcus aureus (MSSA) laboratory strain ISP479C (Pattee P A., et al., J Bacteriol 1981;145:479-488) and CA-MRSA USA300 isolate (TCH1516-HOU-MR, ATCC accession number BAA-1717) (Highlander S K, et al., BMC Microbiol 2007;7:99) were used in this study. Strains were grown aerobically in tryptone soy (TS) broth (Oxoid) at 37° C.
Mouse model of MRSA demonecrotic infection. All animal work was carried out under the approval of the Office of Laboratory Animal Care (OLAC) at San Diego State University and adhered to accepted veterinary standards. Outbred female CD1 mice 8-12 weeks of age were obtained from Charles River Laboratories. CD88−/− mice were purchased from Jackson Labs. Originally on a heterozygous background, these animals were back-crossed at least 5 times onto the C57B^1/6 background. Prior to infection, hair was removed from the lower backs of mice (n=6-10) using a razor and depilatory cream. Sub-cutaneous S. aureus infection was carried out as described previously (Bunce C, et al., Infect Immun 1992;60:2636-2640). Briefly, 0.1 mL volumes of mid-logarithmic phase MRSA ˜4×10^7 CFU diluted in cytodex bead-DPBS solution were injected sub-cutaneously into the right flank of prepared animals. Where indicated, 250 μg EP67, sEP67 or an equivalent volume of DPBS (50 μL) were injected sub-cutaneously into the right flank 24 h and 4 h prior to and 24 h following bacterial infection. Lesion size was measured on subsequent days using digital calipers. Ulcerative lesions were measured over time, harvested and homogenized using sterile 1 mm ceramic beads. Dilutions of the homogenate were placed on TS agar to enumerate bacterial colony forming units (cfu) per g tissue. Mice (CD1) were rendered neutropenic as described previously (Hoesel L M, et al., Shock 2005; 24:40-47). Briefly, mice were injected intra-peritoneally with rat monoclonal anti-mouse Ly-6G antibody (RB6-8C5, eBioscience) or control rat immunoglobulin (IgG, eBioscience) 24 h prior to EP67 injection and subsequent bacterial infection as described above.
EP67 treatment reduces S. aureus cutaneous lesion formation in mice. In order to examine the effects of immunomodulatory peptide EP67 on CA-MRSA disease progression, a mouse model of ulcerative dermal infection was used (Bunce C, Infect Immun 1992; 60:2636-2640). […] Prior to and post-MRSA infection, mice were injected with 250 μg EP67 or the scrambled peptide control, sEP67, as described in above. Disease progression was assessed via measurement of cutaneous lesion development.

CA-MRSA strain USA300 [2] = experiment: Proinflammatory cytokines in skin lesion homogenates (ELISA); format: in vivo, mice
Protocol: Measurement of cytokines. IL-6, TNF-α, INF-γ and KC inflammatory cytokines were measured in tissue homogenates as previously described using ELISA for IL-6, TNF-α, INF-γ (Morgan E L, et al., Vaccine;28:8275-8279), or according to manufacturer's protocols (BD and R&D Systems) for KC. Samples were run in triplicate.
Proinflammatory cytokines are enhanced by EP67 treatment. The decrease in lesion size observed in EP67-treated animals indicated an enhanced immune activation in these animals. In order to determine the nature of the immune response activated by EP67 treatment, skin lesions were harvested 48 h post-infection and EP67 or sEP67 treatment, and subjected to ELISA to measure proinflammatory cytokines in tissue homogenates.

[3] = 48 h post-infection, compared to sEP67

With “(MeL)RMYKPaFDS ([NMeL]RMYKP[dA]FDS) [sEP67, reference compound]” the “lesion size, neutropenic mice vs respective IgG-treated paired control animals” value (CA-MRSA strain USA300 [1]) was “significantly larger lesions”.
“YSFKDMP(MeL)aR (YSFKDMP[NMeL][dA]R; listed as Homo sapiens) [EP67, C-terminal analog of human C5a]” was tested, and the lesion size (CA-MRSA strain USA300 [1]; 250 μg s.c., 48 h post-bacterial inoculation, compared to sEP67) was “significantly reduced”, the “bacterial load (CFU) in lesions” value (CA-MRSA strain USA300 [1]; 5 days post-inoculation, compared to sEP67 or PBS) was “significant reduction in bacterial load” and the “lesion size, neutropenic mice vs respective IgG-treated paired control animals” value (CA-MRSA strain USA300 [1]) was “significantly larger lesions”. The lesion size (CA-MRSA strain USA300 [1]; isotype IgG control antibody groups, EP67 compared to sEP67) was “significant reduction in lesion size”, the lesion size (CA-MRSA strain USA300 [1]; neutropenic mice (RB6-8C5 Mab), EP67 vs sEP67) was “no quantifiable difference in lesion size” and the “IL-6 in skin lesion homogenates” value (CA-MRSA strain USA300 [2]; [3]) was “Significantly higher levels”. The “murine KC in skin lesion homogenates” value (CA-MRSA strain USA300 [2]; [3]) was “Significantly higher levels”, the INF-γ production (CA-MRSA strain USA300 [2]; during MRSA infection) was “increase” and the TNF-α production (CA-MRSA strain USA300 [2]; during MRSA infection) was “increase”.
